{"source": "the supplement of paper PMC8728848", "binders": {"B1": {"name": "Pbx2 (Cryptococcus neoformans) (protein)", "chain": "AVSPLPSSTELVFYSQKRRRRRICSTATGSLSTPDPTRMTSDPYKRVGMRFSSVPRLLITFLSLLLLVSAAPPCVRFADYDSINQMFIDGGPGTKVLLCPNRLYRLSGPIIFTAADQEIATYGYPTGSERAVLRVEGRNTATAIQGDCRRCARVSVKNLVVDGNRKKLGRMRDFQLATGLVVLGGNEGQSIQNSWIKNPRGFTAIHIREGDKLQCSGARVEKNEIGPVGEEYDPEKDGDDPEMSPLGRPLADGVSIACRDSFIRDNTFRDNTDAAIVVYCSPGTLIHANHIFAQSLSAMAGILMVDSTPFNGDYTGTVVRSNIIDAVSRTIRVGIGIGPTVWSDDTETILTGGSVIGNGLKGRYMGYGIAAAGLKQWTIKDNWDEAKHEGRKSARCFDEPVNPDPIGLLYNRPTMEDCTVQSGFADHDFQYLVCIDGLYDKTNPPKHDPAPLAHDPSPTNAQEDNTVQQDGGDSKSKSIEQPREASDIEAEPSVEKMFSTGSEMMDDVLEHSHQRMHEVIDHLSRRIDILGAASAGKGSGDSKISEVLDPAMSSHLEKLQRKIEHLEFSLRSQIETAIQLRSAIQGWDQEMALVTDWEYDILLDVRHKLELSSYPHDQPLDPRLMRGQSYLNNEAVLVDDHSHPSLEGENLRAMSDRARLNANEEA"}}, "assay_in_all_cases": "glycan array binding signal (z-score within array); higher = stronger binding", "conditions_in_all_cases": "glycan notation: IUPAC condensed, linker removed", "key": {"[1]": {"biological_target": "Gal3S(b1-4)Glc6S", "how_it_was_run": "(§1)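 The binding signal is a Z-score computed within each array. Data were drawn from 3228 arrays in the Consortium for Functional Glycomics database, restricted to those with a known protein sequence. Scores were averaged over arrays of the same protein sequence at different concentrations or buffers, and over linkers, and negative values can be taken as non-binding.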"}, "[2]": {"biological_target": "Gal3S(b1-4)GlcNAc", "how_it_was_run": "as §1"}, "[3]": {"biological_target": "Gal3S(b1-4)[Fuc(a1-3)]Glc6S", "how_it_was_run": "as §1"}, "[4]": {"biological_target": "Gal3S(b1-4)[Fuc(a1-3)]GlcNAc", "how_it_was_run": "as §1"}, "[5]": {"biological_target": "Gal3S(b1-4)[Fuc(a1-3)]GlcNAc6S", "how_it_was_run": "as §1"}, "[6]": {"biological_target": "Gal3S4S(b1-4)GlcNAc", "how_it_was_run": "as §1"}, "[7]": {"biological_target": "Gal3S6S(b1-4)GlcNAc", "how_it_was_run": "as §1"}, "[8]": {"biological_target": "Gal3S6S(b1-4)GlcNAc6S", "how_it_was_run": "as §1"}, "[9]": {"biological_target": "Gal4S(b1-4)GlcNAc", "how_it_was_run": "as §1"}, "[10]": {"biological_target": "Gal4S6S(b1-4)GlcNAc", "how_it_was_run": "as §1"}, "[11]": {"biological_target": "Gal6P(b1-4)GlcNAc", "how_it_was_run": "as §1"}, "[12]": {"biological_target": "Gal6S(b1-3)GlcNAc", "how_it_was_run": "as §1"}, "[13]": {"biological_target": "Gal6S(b1-3)GlcNAc6S", "how_it_was_run": "as §1"}, "[14]": {"biological_target": "Gal6S(b1-4)Glc", "how_it_was_run": "as §1"}, "[15]": {"biological_target": "Gal6S(b1-4)Glc6S", "how_it_was_run": "as §1"}, "[16]": {"biological_target": "Gal6S(b1-4)GlcNAc", "how_it_was_run": "as §1"}, "[17]": {"biological_target": "Gal6S(b1-4)GlcNAc6S", "how_it_was_run": "as §1"}, "[18]": {"biological_target": "GalNAc(a1-3)Gal", "how_it_was_run": "as §1"}, "[19]": {"biological_target": "GalNAc(a1-3)GalNAc", "how_it_was_run": "as §1"}, "[20]": {"biological_target": "GalNAc(a1-3)GalNAc(a1-3)Gal(a1-4)Gal(b1-4)GlcNAc", "how_it_was_run": "as §1"}, "[21]": {"biological_target": "GalNAc(a1-3)GalNAc(b1-3)Gal(a1-4)Gal(b1-4)Glc", "how_it_was_run": "as §1"}, "[22]": {"biological_target": "GalNAc(b1-3)Gal", "how_it_was_run": "as §1"}, "[23]": {"biological_target": "GalNAc(b1-3)Gal(a1-4)Gal(b1-4)GlcNAc", "how_it_was_run": "as §1"}, "[24]": {"biological_target": "GalNAc(b1-3)Gal(a1-4)Gal(b1-4)GlcNAc(b1-3)Gal(b1-4)Glc", "how_it_was_run": "as §1"}, "[25]": {"biological_target": "GalNAc(b1-3)Gal(a1-6)Gal(b1-4)Glc", "how_it_was_run": "as §1"}, "[26]": {"biological_target": "GalNAc(b1-3)GalNAc", "how_it_was_run": "as §1"}, "[27]": {"biological_target": "GalNAc(b1-3)GlcNAc", "how_it_was_run": "as §1"}, "[28]": {"biological_target": "GalNAc(b1-4)Gal(b1-4)Glc", "how_it_was_run": "as §1"}, "[29]": {"biological_target": "GalNAc(b1-4)GlcNAc", "how_it_was_run": "as §1"}, "[30]": {"biological_target": "GalNAc(b1-4)GlcNAc(b1-2)Man", "how_it_was_run": "as §1"}}, "note": "This is one part of the list.", "data": [{"binder": "B1", "values": [{"measurement": "glycan array binding signal (z-score)", "setting": "[1]", "value": 1.77}, {"measurement": "glycan array binding signal (z-score)", "setting": "[2]", "value": -0.362}, {"measurement": "glycan array binding signal (z-score)", "setting": "[3]", "value": 0.817}, {"measurement": "glycan array binding signal (z-score)", "setting": "[4]", "value": -0.345}, {"measurement": "glycan array binding signal (z-score)", "setting": "[5]", "value": 2.33}, {"measurement": "glycan array binding signal (z-score)", "setting": "[6]", "value": 0.738}, {"measurement": "glycan array binding signal (z-score)", "setting": "[7]", "value": -0.241}, {"measurement": "glycan array binding signal (z-score)", "setting": "[8]", "value": 6.21}, {"measurement": "glycan array binding signal (z-score)", "setting": "[9]", "value": -0.339}, {"measurement": "glycan array binding signal (z-score)", "setting": "[10]", "value": 2.65}, {"measurement": "glycan array binding signal (z-score)", "setting": "[11]", "value": -0.323}, {"measurement": "glycan array binding signal (z-score)", "setting": "[12]", "value": -0.45}, {"measurement": "glycan array binding signal (z-score)", "setting": "[13]", "value": 3.95}, {"measurement": "glycan array binding signal (z-score)", "setting": "[14]", "value": 0.118}, {"measurement": "glycan array binding signal (z-score)", "setting": "[15]", "value": 2.65}, {"measurement": "glycan array binding signal (z-score)", "setting": "[16]", "value": -0.34}, {"measurement": "glycan array binding signal (z-score)", "setting": "[17]", "value": 2.56}, {"measurement": "glycan array binding signal (z-score)", "setting": "[18]", "value": -0.128}, {"measurement": "glycan array binding signal (z-score)", "setting": "[19]", "value": -0.63}, {"measurement": "glycan array binding signal (z-score)", "setting": "[20]", "value": 0.168}, {"measurement": "glycan array binding signal (z-score)", "setting": "[21]", "value": -0.031}, {"measurement": "glycan array binding signal (z-score)", "setting": "[22]", "value": -0.31}, {"measurement": "glycan array binding signal (z-score)", "setting": "[23]", "value": -0.438}, {"measurement": "glycan array binding signal (z-score)", "setting": "[24]", "value": -0.339}, {"measurement": "glycan array binding signal (z-score)", "setting": "[25]", "value": -0.288}, {"measurement": "glycan array binding signal (z-score)", "setting": "[26]", "value": -0.343}, {"measurement": "glycan array binding signal (z-score)", "setting": "[27]", "value": -0.369}, {"measurement": "glycan array binding signal (z-score)", "setting": "[28]", "value": 1.86}, {"measurement": "glycan array binding signal (z-score)", "setting": "[29]", "value": -0.531}, {"measurement": "glycan array binding signal (z-score)", "setting": "[30]", "value": -0.358}]}]}
